This is an account of results in PubChem BioAssay AID1745853 (National Center for Advancing Translational Sciences (NCATS), 2022).

Common to all, as to assay: Primary Screen for Target Class Profiling of Small Molecule Inhibitors of Methyltransferases
The target in assay [1] is Glycine N-methyltransferase (Homo sapiens) (UniProt Q14749). Particulars: purified enzyme, MTase-Glo SAH luminescence; measured here: GNMT inhibition; at 40 µM; stronger effect = lower value. An outline of the steps:
(§1)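 Each enzyme was reacted with SAM and its substrate, with compounds tested once at 40 uM; SAH formed was read by MTase-Glo luminescence.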

Assay [2] deals with Guanidinoacetate N-methyltransferase (Homo sapiens) (UniProt Q14353). The conditions noted are these: purified enzyme, MTase-Glo SAH luminescence; measured here: GAMT inhibition; at 40 µM; stronger effect = lower value. An outline of the steps: as §1
The target of assay [3] is Histamine N-methyltransferase (Homo sapiens) (UniProt P50135). Particulars: purified enzyme, MTase-Glo SAH luminescence; measured here: HNMT inhibition; at 40 µM; stronger effect = lower value. The gist of the method: as §1
Assay [4] has as its target Nicotinamide N-methyltransferase (Homo sapiens) (UniProt P40261). The conditions noted are these: purified enzyme, MTase-Glo SAH luminescence; measured here: NNMT inhibition; at 40 µM; stronger effect = lower value. An outline of the steps:
as §1

Assay [5] deals with Phenylethanolamine N-methyltransferase (Homo sapiens) (UniProt P11086). Particulars: purified enzyme, MTase-Glo SAH luminescence; measured here: PNMT inhibition; at 40 µM; stronger effect = lower value. The gist of the method:
as §1

Some of the results follow. The main result of the screen is listed elsewhere. These columns were measured beside it and carry no call.
% is set by controls: 0 for no effect and ±100 for the full control effect.

As for `CC(=O)Nc1c2n(c3ccc(F)cc13)CC(C)(C(=O)NC1CCCC1)N(C1CCCC1)C2=O` (stereo not drawn), the activity change, negative = inhibition in assay [1] is -4.91%; in assay [2], 2.48%; in assay [3] it was -6.72%; in assay [4] it was -9.82%; in assay [5], -6.14%.

`COc1cc(C(C)C)c(Oc2cnc(N)nc2N)cc1I`: the activity change, negative = inhibition in assay [1] was -3.72%; in assay [2] it was -4.36%; in assay [3], 2.77%; in assay [4], -28.8%; in assay [5], -1.37%.

With `O=C(CCCCCN1CCN(c2ccccc2-c2ccccc2)CC1)NC1CCCc2ccccc21` (stereo not drawn), the activity change, negative = inhibition in assay [1] was -3.81%; in assay [2], 10.9%; in assay [3] it was -2.57%; in assay [4], -6.72%; in assay [5] it was 5.87%.

Regarding `Cc1cccc(C(C)(C)C)c1NC(=O)N1CCN2C(=O)CNC(=O)C2C1` (stereo not drawn), the activity change, negative = inhibition in assay [1] is -2.81%; in assay [2], -3.33%; in assay [3] it was -2.26%; in assay [4], -8.24%; in assay [5], 9.98%.

On to `C=C1CCC(OC(C)=O)C2(C)CC3(O)OC(=O)C(C)=C3CC12` (stereo not drawn), for which the activity change, negative = inhibition in assay [1] was -0.454%; in assay [2], 1.59%; in assay [3] it was 5.3%; in assay [4] it was -10.2%; in assay [5], 4.07%.

In the case of `CN1CCN(c2ccc(-c3cc4c(ccn4C)c(C(=O)NCCC(N)=O)n3)cc2)CC1`, the activity change, negative = inhibition in assay [1] was -8.16%; in assay [2] it was -7.4%; in assay [3], -5.08%; in assay [4], -17%; in assay [5], -14.7%.

As for `O=c1[nH]c(C2CCCN([S+](=O)([O-])c3cccc(C(F)(F)F)c3)C2)nn1-c1ccccn1` (stereo not drawn), the activity change, negative = inhibition in assay [1] is -8.26%; in assay [2], -4.1%; in assay [3], -3.46%; in assay [4] it was -7.27%; in assay [5] it was 11.5%.

With `CCC(C)NC(=O)C1COC2(CCC(C)CC2)N1C(=O)c1cccc(C)c1` (stereo not drawn), the activity change, negative = inhibition in assay [1] is -0.31%; in assay [2], -0.403%; in assay [3] it was -0.499%; in assay [4] it was -0.494%; in assay [5] it was 2.19%.

As for `CCOC(=O)c1cc2n(n1)CC(C)(C(=O)NCCCOC)N(c1ccc3c(c1)OCO3)C2=O` (stereo not drawn), the activity change, negative = inhibition amounted to 6.27% in assay [1]; 0.719% in assay [2]; 8.44% in assay [3]; 7.24% in assay [4]; 5.06% in assay [5].

On to `Cc1ccc(C)c(N2C(=O)c3cc(C(C)(C)C)nn3CC2(C)C(=O)NCc2ccccc2)c1` (stereo not drawn), for which the activity change, negative = inhibition in assay [1] amounted to 9.58%; in assay [2] it was 1.7%; in assay [3] it was 6.05%; in assay [4] it was 11.2%; in assay [5], 3.65%.

In the case of `O=C(Cn1nc2n(Cc3ccccc3)c(=O)c3ccccc3n2c1=O)Nc1ccc2c(c1)OCO2`, the activity change, negative = inhibition in assay [1] is -2.31%; in assay [2], 2.48%; in assay [3], 0.973%; in assay [4], -4.87%; in assay [5], -0.115%.

As for `COc1ccccc1NC(=O)Cn1nc2n(CCCOC(C)C)c(=O)c3ccccc3n2c1=O`, the activity change, negative = inhibition in assay [1] came out at 5.02%; in assay [2], 0%; in assay [3], 6.9%; in assay [4], 6.33%; in assay [5], 5.48%.

With `CCOC(=O)C1CCCN(c2nc3c(S(=O)(=O)c4ccc(C)c(C)c4)nnn3c3ccccc23)C1` (stereo not drawn), the activity change, negative = inhibition is -11.1% in assay [1]; 1.05% in assay [2]; 1.81% in assay [3]; -1.74% in assay [4]; -1.28% in assay [5].

Consider `CC1CCC2C(C)(C)C(O)CCC2(C)C12Cc1c(O)cc3c(c1O2)C(N)=NC3` (stereo not drawn), for which the activity change, negative = inhibition was 4.45% in assay [1]; 9.77% in assay [2]; 10.1% in assay [3]; -19.8% in assay [4]; 0.493% in assay [5].

Consider `Cc1ccc(CNC(=O)CCc2nnc3n(CCC(C)C)c(=O)c4ccccc4n23)cc1`, for which the activity change, negative = inhibition in assay [1] is -6.25%; in assay [2], 4.13%; in assay [3], 1.18%; in assay [4], -2.55%; in assay [5], -5.09%.

As for `Cc1ccc(S(=O)(=O)c2nnn3c2nc(N2CCC(N4CCCCC4)CC2)c2ccccc23)cc1C`, the activity change, negative = inhibition in assay [1] was -2.43%; in assay [2] it was -0.663%; in assay [3], -87%; in assay [4] it was -5.61%; in assay [5], -6.4%.

Consider `COc1ccccc1CN1C(=O)c2cc3sccc3n2CC1(C)C(=O)NC1CCCCCC1` (stereo not drawn), for which the activity change, negative = inhibition in assay [1] was -1.6%; in assay [2], 3.56%; in assay [3], -2.3%; in assay [4], -1.22%; in assay [5] it was -6.13%.

With `O=S(=O)(NCCN1CCOCC1)c1ccc(Cc2ccc(S(=O)(=O)NCCN3CCOCC3)cc2)cc1`, the activity change, negative = inhibition in assay [1] is -0.102%; in assay [2] it was 0%; in assay [3], 10.2%; in assay [4], 2%; in assay [5], 3.53%.

Consider `O=C1NC(=O)c2cc(Nc3ccccc3)c(Nc3ccccc3)cc21`, for which the activity change, negative = inhibition in assay [1] was -23%; in assay [2], -6.34%; in assay [3], -13.8%; in assay [4], -20.7%; in assay [5] it was -12.6%.

With `CNc1cc(C2CC(Nc3nc(N)nc(C)c3Cl)C2)nc(COC)n1` (stereo not drawn), the activity change, negative = inhibition in assay [1] is -6.14%; in assay [2], 0.199%; in assay [3], -3.93%; in assay [4] it was -6.86%; in assay [5], -0.186%.

Consider `CC(C)CCNC(=O)C1(C)Cn2c(ccc2-c2ccco2)C(=O)N1CCc1ccc(Cl)cc1` (stereo not drawn), for which the activity change, negative = inhibition in assay [1] is 0.001%; in assay [2] it was 0%; in assay [3], 10.9%; in assay [4] it was 7.44%; in assay [5], 2.55%.

With `C#CCNC(=O)C[C@@H]1c2nc(NC(=O)OCC=C)sc2C[C@@H]2[C@](C)(CO)[C@H](O)CC[C@]21C`, the activity change, negative = inhibition in assay [1] is -5.97%; in assay [2], -10.7%; in assay [3] it was -6.4%; in assay [4] it was -13.7%; in assay [5], -16.7%.

Consider `O=C(c1ccc(C2CCCNC2)cc1)N1CCC(Oc2cccc(F)c2)CC1` (stereo not drawn), for which the activity change, negative = inhibition in assay [1] was -4.66%; in assay [2] it was 3.06%; in assay [3] it was -11.9%; in assay [4], -3.04%; in assay [5], -0.661%.

On to `C[C@@H]1CC[C@]2(C)C3(C)CC[C@@]2(OC3=O)[C@@]12C[C@H](c1ccoc1)OC2=O`, for which the activity change, negative = inhibition in assay [1] was 0%; in assay [2], -3.07%; in assay [3], 2.17%; in assay [4], -16.3%; in assay [5], 2.91%.

Take `CCOC(=O)C1c2c(OC)ccc3c2C(=CC(C)(C)CO3)CN1C(=O)C1CC1` (stereo not drawn): the activity change, negative = inhibition in assay [1] is -8.72%; in assay [2], -8.04%; in assay [3] it was -3.81%; in assay [4], -19.1%; in assay [5], -10.1%.

As to `O=C(C1CCCN1Cc1ccc(-c2cncnc2)cc1)N1CCOCC1` (stereo not drawn), the activity change, negative = inhibition in assay [1] is -3.51%; in assay [2] it was -15.7%; in assay [3], -1.79%; in assay [4], -14.1%; in assay [5], -13.2%.

For `Cc1cc(C(=O)Nc2nc3cccc(Cl)c3n2C2CCCCN(C(=O)/C=C/CN(C)C)C2)ccn1` (stereo not drawn), the activity change, negative = inhibition in assay [2] is 10.6%; in assay [4] it was -14.3%; in assay [5], -3.32%.

In the case of `O=C(/C=C/c1ccc(O)cc1)OCC1=C[C@@H](O)[C@@H]2C=CO[C@@H](O[C@@H]3O[C@H](CO)[C@@H](O)[C@H](O)[C@H]3O)[C@H]12`, the activity change, negative = inhibition in assay [1] is 0%; in assay [2] it was 3.75%; in assay [3], 3.92%; in assay [4], -8.01%; in assay [5], -3.07%.

Consider `CCCc1cc2c(-c3ccccc3)cc(=O)oc2cc1OCc1cc(C(=O)OC)oc1C`, for which the activity change, negative = inhibition in assay [1] was -9.4%; in assay [2], 3.67%; in assay [3], -4.66%; in assay [4], -2.15%; in assay [5], -6.22%.

As to `COCC(=O)NC[C@H]1CCN(Cc2scnc2C)C[C@H]1N(C)C`, the activity change, negative = inhibition in assay [1] is -5.06%; in assay [2], -5.22%; in assay [3], -2.48%; in assay [4] it was -7.37%; in assay [5], -4.98%.
